Measurements reported in ChEMBL document CHEMBL4888484, “Replenishing the malaria drug discovery pipeline: Screening and hit evaluation of the MMV Hit Generation Library 1 (HGL1) against asexual blood stage Plasmodium falciparum ,using a nano luciferase reporter read-out” (2022).
In all, about 150,000 compounds went through this assay and about 540 (0.36%) showed an effect of 50% or more. The list shows a part of the results.

Test system: Plasmodium falciparum
Experiment: Primary screen in NF54 nanoGlo assay, in single point, at 2uM, 72h; a lower Z score goes with more inhibition
Type: functional, Erythrocyte
Conditions: timepoint 72 hour

Compared with `C[C@H](NCc1nnc2n1CCCC2)c1ccc(-n2cnnn2)cc1`, `CC1CC(CNS(=O)(=O)c2cccc(-n3cnnn3)c2)CCO1` (stereo unspecified) is lower in “% Inhibition” value: 4% for the first, -10% for the second.

First: O=C(Nc1cc(C(F)(F)F)ccc1N1CCOCC1)c1nn(-c2ccccc2)c(=O)c2ccccc12
Second: Cc1cn2nc(C(=O)Nc3ccccc3)cc2c(N(C)Cc2ccccc2)n1
The “% Inhibition” value of the first is lower: -15% for the first, 1% for the second.

First: Cc1ccccc1[C@H]1CC(=O)Nc2c1c(C)nn2-c1nncc(-c2ccc(Cl)cc2)n1
Second: Cc1ccc(-c2ncc(C(=O)NCc3ccccc3)c(N3CCCC[C@@H]3C)n2)cc1
The “% Inhibition” value of the first is higher: 25% for the first, -2% for the second.

Compared with `CC1CCC(NC(=O)N(C)CCN(C)C2CCN(C)CC2)CC1` (stereo unspecified), `O=C(NCC(=O)N(C1CC1)[C@H]1CCc2ccccc21)NC1CC1` is lower in “% Inhibition” value: 17% for the first, -7% for the second.

Going from `CC(CC(O)c1ccco1)NC(=O)Nc1cccc2c1CCN2C` (stereo unspecified) to `CN1C(=O)[C@]2(CCN(C(=O)Nc3ccc4c(c3)OCO4)C2)c2ccccc21`, the “% Inhibition” value falls from -13% to -15%.

Going from `COc1ccc(S(=O)(=O)N2CCN(C(=O)c3cnn4ccccc34)CC2)cc1C` to `CCc1sc(C(=O)Nc2cc(S(=O)(=O)N3CCOCC3)ccc2OC)cc1C`, the “% Inhibition” value rises from -10% to -1%.

First: Cc1ccc(-c2cc(F)c3c(c2)C[C@H](CN)O3)cc1F
Second: Cc1cc(NS(=O)(=O)c2cc3n(c2)CCN(C(C)C)C3=O)ccc1F
The “% Inhibition” value of the first is higher: 0% for the first, -5% for the second.

Going from `O=C1CC2(CCC2)C(=O)N1Cc1cc2c(cc1Br)OCCO2` to `COc1ccc2c(C)c(C(=O)N3CCO[C@H]4CCCC[C@@H]43)oc2c1`, the “% Inhibition” value rises from -27% to -8%.

First: COc1ccc(Oc2nc(N3CCN(C)CC3)nc3c2CN(C(=O)c2ccc(C(F)(F)F)cc2)CC3)cc1
Second: CCCN1CCCN(C(=O)c2ccc(-c3cc(C)c4nccn4c3)cc2)CC1
The “% Inhibition” value of the first is higher: 4% for the first, -13% for the second.

Going from `CCn1cc(S(=O)(=O)N2CC[C@H](c3noc(COCc4ccccc4)n3)C2)cn1` to `Cc1cc(-c2noc(CNC(=O)Cn3cnc4ccccc43)n2)no1`, the “% Inhibition” value rises from -3% to 17%.

First: O=C1NCCCC[C@@H]1n1ccnc1-c1ccccc1Cn1cccn1
Second: Cn1cc(-c2ccc(-c3ccc4c(n3)NCCC4)cc2)cn1
The “% Inhibition” value of the first is higher: 4% for the first, -6% for the second.

Compared with `CC(NC(=O)C(NC(=O)c1ccc(Cl)cc1Cl)C(C)C)c1cc2ccccc2o1` (stereo unspecified), `Cc1ccc(C[C@H](NC(=O)Nc2cc(C)on2)c2cccnc2)cc1` is lower in “% Inhibition” value: -2% for the first, -7% for the second.

Going from `Cc1ccc(C(=O)N2CCC(NC(=O)c3nccnc3NC(=O)c3ccccc3F)CC2)cc1` to `NC(=O)[C@H]1CCCN(C(=O)Cn2nnc3ccccc3c2=O)C1`, the “% Inhibition” value rises from -6% to -5%.

Compared with `Cc1ncnc(N2CCC(N3CCOC3=O)CC2)c1C`, `COCCN1CC[C@H](c2ncnn2C2CCCCC2)C1` is lower in “% Inhibition” value: 10% for the first, -7% for the second.

First: CC(C)(C)c1cc(CN2C[C@@H]3CC[C@H]2CN(Cc2cscn2)C3)n[nH]1
Second: Cc1nc(CO[C@H]2CCN(CC(=O)Nc3cccc(F)c3)C2)cs1
The “% Inhibition” value of the first is lower: -7% for the first, 5% for the second.

Compared with `CN(Cc1ncccn1)S(=O)(=O)C[C@H]1COc2ccccc2O1`, `Cc1nnc(CN(C)Cc2nc3ccccc3o2)o1` is lower in “% Inhibition” value: 0% for the first, -2% for the second.

First: Cc1ccc([C@H](C)NC(=O)N(C)CCc2noc(C(C)C)n2)cn1
Second: CCN(C(=O)c1ccc(C(C)C)cc1)[C@@H](C)CS(C)(=O)=O
The “% Inhibition” value of the first is lower: -15% for the first, 3% for the second.

Compared with `CC(NC(=O)C1CC(=O)N(C2CCS(=O)(=O)C2)C1)C1CC2CCC1C2` (stereo unspecified), `O=S(=O)(CC1CCOC1)N1CCOC(C2CCC2)C1` (stereo unspecified) is higher in “% Inhibition” value: -5% for the first, -4% for the second.

First: COc1cccc([C@@H](C)CCCC(=O)N(C)Cc2c[nH]cn2)c1
Second: CC[C@H](C)N(Cc1csc(COc2ccc(Cl)cc2)n1)C(=O)c1ccc(F)cc1
The “% Inhibition” value of the first is lower: -5% for the first, -2% for the second.

Compared with `CC(=O)Nc1nc(N(C)C)c2nccnc2n1`, `O=C(N[C@H]1CCCc2cccnc21)c1cc(C(F)F)ncn1` is lower in “% Inhibition” value: 10% for the first, 3% for the second.

First: O=C(CN[C@H]1CCc2ncnn2C1)Nc1ccc(Cl)cn1
Second: COc1ccc(CCc2nc(NC(=O)c3csc(NC4CC4)n3)n[nH]2)cc1
The “% Inhibition” value of the first is lower: -7% for the first, 20% for the second.

Compared with `CCc1noc(C2CCC(NCc3ccc(C(C)C)cc3)CC2)n1` (stereo unspecified), `CN=C(NC)NCc1ccc(COC(C)C)cc1` is higher in “% Inhibition” value: -7% for the first, 3% for the second.

Going from `Nc1nccc(N2CCC[C@H](OC(=O)c3ccc4c(c3)CCCC4)C2)n1` to `COc1ccc(OC)c(-c2cc(C(=O)NCc3ccc(-c4ccoc4)cc3)n(C)n2)c1`, the “% Inhibition” value rises from -12% to 0%.

Going from `Cc1c(CN2CCn3nc(CCC(=O)NCCO)cc3C2)cc(C#N)n1C` to `COCCC1(CNC(=O)NCc2cc[nH]n2)CCCC1`, the “% Inhibition” value rises from -14% to -7%.

Going from `Cc1nnc(CN(Cc2ccccc2)Cc2scnc2C)s1` to `COc1ccc(-c2nc3ccccc3s2)cc1COc1ccccc1F`, the “% Inhibition” value falls from 8% to 4%.

Going from `CC(C)OCCc1nc(CC(=O)NC2CCCCC2)no1` to `CO[C@@H](CNC(=O)C1CCOCC1)C(C)(C)C`, the “% Inhibition” value rises from -2% to 1%.

With `CCN(C(=O)OC(C)(C)C)[C@H](C)CNC(=O)C(C)(C)N1CCN(C)CC1` the “% Inhibition” value was -2%.

First: C[C@H](NCc1nnc2n1CCCC2)c1ccc(-n2cnnn2)cc1
Second: CC1CC(CNS(=O)(=O)c2cccc(-n3cnnn3)c2)CCO1 (stereo unspecified)
The Z score of the first is lower: -0.46 for the first, 1.27 for the second.

Compared with `O=C(Nc1cc(C(F)(F)F)ccc1N1CCOCC1)c1nn(-c2ccccc2)c(=O)c2ccccc12`, `Cc1cn2nc(C(=O)Nc3ccccc3)cc2c(N(C)Cc2ccccc2)n1` is lower in Z score: 2.63 for the first, -0.25 for the second.

First: Cc1ccccc1[C@H]1CC(=O)Nc2c1c(C)nn2-c1nncc(-c2ccc(Cl)cc2)n1
Second: Cc1ccc(-c2ncc(C(=O)NCc3ccccc3)c(N3CCCC[C@@H]3C)n2)cc1
The Z score of the first is lower: -1.36 for the first, 0.33 for the second.

First: CC1CCC(NC(=O)N(C)CCN(C)C2CCN(C)CC2)CC1 (stereo unspecified)
Second: O=C(NCC(=O)N(C1CC1)[C@H]1CCc2ccccc21)NC1CC1
The Z score of the first is lower: -2.21 for the first, 0.95 for the second.

First: CC(CC(O)c1ccco1)NC(=O)Nc1cccc2c1CCN2C (stereo unspecified)
Second: CN1C(=O)[C@]2(CCN(C(=O)Nc3ccc4c(c3)OCO4)C2)c2ccccc21
The Z score of the first is lower: 1.81 for the first, 1.93 for the second.

Going from `COc1ccc(S(=O)(=O)N2CCN(C(=O)c3cnn4ccccc34)CC2)cc1C` to `CCc1sc(C(=O)Nc2cc(S(=O)(=O)N3CCOCC3)ccc2OC)cc1C`, the Z score falls from 1.56 to 0.11.

Compared with `Cc1ccc(-c2cc(F)c3c(c2)C[C@H](CN)O3)cc1F`, `Cc1cc(NS(=O)(=O)c2cc3n(c2)CCN(C(C)C)C3=O)ccc1F` is higher in Z score: -0.06 for the first, 0.86 for the second.

Going from `O=C1CC2(CCC2)C(=O)N1Cc1cc2c(cc1Br)OCCO2` to `COc1ccc2c(C)c(C(=O)N3CCO[C@H]4CCCC[C@@H]43)oc2c1`, the Z score falls from 3.18 to 1.67.

First: COc1ccc(Oc2nc(N3CCN(C)CC3)nc3c2CN(C(=O)c2ccc(C(F)(F)F)cc2)CC3)cc1
Second: CCCN1CCCN(C(=O)c2ccc(-c3cc(C)c4nccn4c3)cc2)CC1
The Z score of the first is lower: -0.35 for the first, 1.68 for the second.

Compared with `CCn1cc(S(=O)(=O)N2CC[C@H](c3noc(COCc4ccccc4)n3)C2)cn1`, `Cc1cc(-c2noc(CNC(=O)Cn3cnc4ccccc43)n2)no1` is lower in Z score: 0.64 for the first, -2.22 for the second.

Compared with `O=C1NCCCC[C@@H]1n1ccnc1-c1ccccc1Cn1cccn1`, `Cn1cc(-c2ccc(-c3ccc4c(n3)NCCC4)cc2)cn1` is higher in Z score: -0.52 for the first, 1.27 for the second.

First: CC(NC(=O)C(NC(=O)c1ccc(Cl)cc1Cl)C(C)C)c1cc2ccccc2o1 (stereo unspecified)
Second: Cc1ccc(C[C@H](NC(=O)Nc2cc(C)on2)c2cccnc2)cc1
The Z score of the first is lower: 0.21 for the first, 1.31 for the second.

Compared with `Cc1ccc(C(=O)N2CCC(NC(=O)c3nccnc3NC(=O)c3ccccc3F)CC2)cc1`, `NC(=O)[C@H]1CCCN(C(=O)Cn2nnc3ccccc3c2=O)C1` is lower in Z score: 1.09 for the first, 0.72 for the second.

Going from `Cc1ncnc(N2CCC(N3CCOC3=O)CC2)c1C` to `COCCN1CC[C@H](c2ncnn2C2CCCCC2)C1`, the Z score rises from -0.96 to 1.3.

First: CC(C)(C)c1cc(CN2C[C@@H]3CC[C@H]2CN(Cc2cscn2)C3)n[nH]1
Second: Cc1nc(CO[C@H]2CCN(CC(=O)Nc3cccc(F)c3)C2)cs1
The Z score of the first is higher: 0.99 for the first, -0.58 for the second.

Going from `CN(Cc1ncccn1)S(=O)(=O)C[C@H]1COc2ccccc2O1` to `Cc1nnc(CN(C)Cc2nc3ccccc3o2)o1`, the Z score rises from -0.04 to 0.29.

Compared with `Cc1ccc([C@H](C)NC(=O)N(C)CCc2noc(C(C)C)n2)cn1`, `CCN(C(=O)c1ccc(C(C)C)cc1)[C@@H](C)CS(C)(=O)=O` is lower in Z score: 2.07 for the first, -0.36 for the second.

Compared with `CC(NC(=O)C1CC(=O)N(C2CCS(=O)(=O)C2)C1)C1CC2CCC1C2` (stereo unspecified), `O=S(=O)(CC1CCOC1)N1CCOC(C2CCC2)C1` (stereo unspecified) is lower in Z score: 0.83 for the first, 0.77 for the second.

Compared with `COc1cccc([C@@H](C)CCCC(=O)N(C)Cc2c[nH]cn2)c1`, `CC[C@H](C)N(Cc1csc(COc2ccc(Cl)cc2)n1)C(=O)c1ccc(F)cc1` is lower in Z score: 0.67 for the first, 0.32 for the second.

First: CC(=O)Nc1nc(N(C)C)c2nccnc2n1
Second: O=C(N[C@H]1CCCc2cccnc21)c1cc(C(F)F)ncn1
The Z score of the first is lower: -1.15 for the first, -0.39 for the second.

Going from `O=C(CN[C@H]1CCc2ncnn2C1)Nc1ccc(Cl)cn1` to `COc1ccc(CCc2nc(NC(=O)c3csc(NC4CC4)n3)n[nH]2)cc1`, the Z score falls from 0.9 to -3.8.

Going from `CCc1noc(C2CCC(NCc3ccc(C(C)C)cc3)CC2)n1` (stereo unspecified) to `CN=C(NC)NCc1ccc(COC(C)C)cc1`, the Z score falls from 0.8 to -0.58.

Going from `Nc1nccc(N2CCC[C@H](OC(=O)c3ccc4c(c3)CCCC4)C2)n1` to `COc1ccc(OC)c(-c2cc(C(=O)NCc3ccc(-c4ccoc4)cc3)n(C)n2)c1`, the Z score falls from 1.92 to -0.05.

Compared with `Cc1c(CN2CCn3nc(CCC(=O)NCCO)cc3C2)cc(C#N)n1C`, `COCCC1(CNC(=O)NCc2cc[nH]n2)CCCC1` is lower in Z score: 1.95 for the first, 0.84 for the second.

Going from `Cc1nnc(CN(Cc2ccccc2)Cc2scnc2C)s1` to `COc1ccc(-c2nc3ccccc3s2)cc1COc1ccccc1F`, the Z score rises from -1.06 to -0.49.

Going from `CC(C)OCCc1nc(CC(=O)NC2CCCCC2)no1` to `CO[C@@H](CNC(=O)C1CCOCC1)C(C)(C)C`, the Z score falls from 0.16 to -0.21.

`CCN(C(=O)OC(C)(C)C)[C@H](C)CNC(=O)C(C)(C)N1CCN(C)CC1` showed a Z score of 0.33.
